This is one part of the list. The list includes weakly bound sequences.
Biological target: T1, MBP-FoxP3dN (UniProt Q99JB6)
T1 sequence: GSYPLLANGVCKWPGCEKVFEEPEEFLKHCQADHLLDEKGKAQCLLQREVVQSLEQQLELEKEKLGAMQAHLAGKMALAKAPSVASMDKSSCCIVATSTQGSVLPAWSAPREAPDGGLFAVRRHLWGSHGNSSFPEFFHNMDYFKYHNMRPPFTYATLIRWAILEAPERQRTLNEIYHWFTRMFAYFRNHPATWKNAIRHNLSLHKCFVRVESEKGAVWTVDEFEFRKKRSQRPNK
Assay: PD-seq (MBP pull-down with sequencing)
Settings: 20 mM Tris-HCl pH 7.5, 100 mM NaCl, 1.5 mM MgCl2, 0.4 uM protein, 0.1 uM dsDNA library, 30 min, room temperature, amylose pull-down; high values mean tight binding; double strand, one strand shown

Sequence	binding signal (RPM ratio (pull-down/input))
GATGATTGTTCTCCCAGCTGATGAATTTTTATCGTCGAGTAAACAAATTTTCCTAATCTTTCTGTTCAAGCGCCATCTAC	0.38
GATGATTGTTCTCCCAGCTGATGAATTACTTTCGTCGAGTAAACAAATTTTCCTAATCTTTCTGTTCAAGCGCCATCTAC	0.398
GATGATTGTTCTCCCAGCTGATGAATTGGATGTTTCGAGTAAACAAATTTTCCTAATCTTTCTGTTCAAGCGCCATCTAC	1.75
GATGATTGTTCTCCCAGCTGATGAATTCGTCGGCTCGAGTAAACAAATTTTCCTAATCTTTCTGTTCAAGCGCCATCTAC	0.333
GATGATTGTTCTCCCAGCTGATGAATTAGAGGCTTCGAGTAAACAAATTTTCCTAATCTTTCTGTTCAAGCGCCATCTAC	0.788
GATGATTGTTCTCCCAGCTGATGAATTAGTCGTGTCGAGTAAACAAATTTTCCTAATCTTTCTGTTCAAGCGCCATCTAC	1.61
GATGATTGTTCTCCCAGCTGATGAATTAAAGTGTTCGAGTAAACAAATTTTCCTAATCTTTCTGTTCAAGCGCCATCTAC	0.592
GATGATTGTTCTCCCAGCTGATGAATTTACCCCATCGAGTAAACAAATTTTCCTAATCTTTCTGTTCAAGCGCCATCTAC	0.492
GATGATTGTTCTCCCAGCTGATGAATTGCTCAAGTCGAGTAAACAAATTTTCCTAATCTTTCTGTTCAAGCGCCATCTAC	0.371
GATGATTGTTCTCCCAGCTGATGAATTTGCGGAATCGAGTAAACAAATTTTCCTAATCTTTCTGTTCAAGCGCCATCTAC	0.363
GATGATTGTTCTCCCAGCTGATGAATTGAGTGGCTCGAGTAAACAAATTTTCCTAATCTTTCTGTTCAAGCGCCATCTAC	0.573
GATGATTGTTCTCCCAGCTGATGAATTAGACCCCTCGAGTAAACAAATTTTCCTAATCTTTCTGTTCAAGCGCCATCTAC	0.31
GATGATTGTTCTCCCAGCTGATGAATTGACCTGGTCGAGTAAACAAATTTTCCTAATCTTTCTGTTCAAGCGCCATCTAC	0.198
GATGATTGTTCTCCCAGCTGATGAATTTAATAGATCGAGTAAACAAATTTTCCTAATCTTTCTGTTCAAGCGCCATCTAC	0.301
GATGATTGTTCTCCCAGCTGATGAATTCGGGCCTTCGAGTAAACAAATTTTCCTAATCTTTCTGTTCAAGCGCCATCTAC	1.47
GATGATTGTTCTCCCAGCTGATGAATTTCTGCTCTCGAGTAAACAAATTTTCCTAATCTTTCTGTTCAAGCGCCATCTAC	0.277

Sequence	binding signal (RPM ratio (pull-down/input))
GATGATTGTTCTCCCAGCTGATGAATTATTAATATCGAGTAAACAAATTTTCCTAATCTTTCTGTTCAAGCGCCATCTAC	0.553
GATGATTGTTCTCCCAGCTGATGAATTGAACGTATCGAGTAAACAAATTTTCCTAATCTTTCTGTTCAAGCGCCATCTAC	0.5
GATGATTGTTCTCCCAGCTGATGAATTTGTCCGCTCGAGTAAACAAATTTTCCTAATCTTTCTGTTCAAGCGCCATCTAC	1.34
GATGATTGTTCTCCCAGCTGATGAATTAGCGGTGTCGAGTAAACAAATTTTCCTAATCTTTCTGTTCAAGCGCCATCTAC	0.745
GATGATTGTTCTCCCAGCTGATGAATTAAAAGATTCGAGTAAACAAATTTTCCTAATCTTTCTGTTCAAGCGCCATCTAC	0.243
GATGATTGTTCTCCCAGCTGATGAATTGAGGGAATCGAGTAAACAAATTTTCCTAATCTTTCTGTTCAAGCGCCATCTAC	0.284
GATGATTGTTCTCCCAGCTGATGAATTATGCGATTCGAGTAAACAAATTTTCCTAATCTTTCTGTTCAAGCGCCATCTAC	2.32
GATGATTGTTCTCCCAGCTGATGAATTAGACTGGTCGAGTAAACAAATTTTCCTAATCTTTCTGTTCAAGCGCCATCTAC	0.336
GATGATTGTTCTCCCAGCTGATGAATTGGCTAGCTCGAGTAAACAAATTTTCCTAATCTTTCTGTTCAAGCGCCATCTAC	0.375
GATGATTGTTCTCCCAGCTGATGAATTAGTCGACTCGAGTAAACAAATTTTCCTAATCTTTCTGTTCAAGCGCCATCTAC	0.453
GATGATTGTTCTCCCAGCTGATGAATTTCCCCCGTCGAGTAAACAAATTTTCCTAATCTTTCTGTTCAAGCGCCATCTAC	0.185
GATGATTGTTCTCCCAGCTGATGAATTGATAAGTTCGAGTAAACAAATTTTCCTAATCTTTCTGTTCAAGCGCCATCTAC	0.36
GATGATTGTTCTCCCAGCTGATGAATTCTGCTAATCGAGTAAACAAATTTTCCTAATCTTTCTGTTCAAGCGCCATCTAC	0.401
GATGATTGTTCTCCCAGCTGATGAATTCCATTTTTCGAGTAAACAAATTTTCCTAATCTTTCTGTTCAAGCGCCATCTAC	0.651
GATGATTGTTCTCCCAGCTGATGAATTACAGTCTTCGAGTAAACAAATTTTCCTAATCTTTCTGTTCAAGCGCCATCTAC	0.547
